Screen size: about 310,000 compounds; about 2,200 (0.71%) showed an effect of 50% or more. The effect is printed as a negative number. The list shows a part of the results.
target: human ether-à-go-go-related gene (hERG) potassium channel (human, UniProt Q12809); assay: primary screen, population patch clamp on CHO cells stably expressing hERG
Sequence (Q12809 whole entry, looked up): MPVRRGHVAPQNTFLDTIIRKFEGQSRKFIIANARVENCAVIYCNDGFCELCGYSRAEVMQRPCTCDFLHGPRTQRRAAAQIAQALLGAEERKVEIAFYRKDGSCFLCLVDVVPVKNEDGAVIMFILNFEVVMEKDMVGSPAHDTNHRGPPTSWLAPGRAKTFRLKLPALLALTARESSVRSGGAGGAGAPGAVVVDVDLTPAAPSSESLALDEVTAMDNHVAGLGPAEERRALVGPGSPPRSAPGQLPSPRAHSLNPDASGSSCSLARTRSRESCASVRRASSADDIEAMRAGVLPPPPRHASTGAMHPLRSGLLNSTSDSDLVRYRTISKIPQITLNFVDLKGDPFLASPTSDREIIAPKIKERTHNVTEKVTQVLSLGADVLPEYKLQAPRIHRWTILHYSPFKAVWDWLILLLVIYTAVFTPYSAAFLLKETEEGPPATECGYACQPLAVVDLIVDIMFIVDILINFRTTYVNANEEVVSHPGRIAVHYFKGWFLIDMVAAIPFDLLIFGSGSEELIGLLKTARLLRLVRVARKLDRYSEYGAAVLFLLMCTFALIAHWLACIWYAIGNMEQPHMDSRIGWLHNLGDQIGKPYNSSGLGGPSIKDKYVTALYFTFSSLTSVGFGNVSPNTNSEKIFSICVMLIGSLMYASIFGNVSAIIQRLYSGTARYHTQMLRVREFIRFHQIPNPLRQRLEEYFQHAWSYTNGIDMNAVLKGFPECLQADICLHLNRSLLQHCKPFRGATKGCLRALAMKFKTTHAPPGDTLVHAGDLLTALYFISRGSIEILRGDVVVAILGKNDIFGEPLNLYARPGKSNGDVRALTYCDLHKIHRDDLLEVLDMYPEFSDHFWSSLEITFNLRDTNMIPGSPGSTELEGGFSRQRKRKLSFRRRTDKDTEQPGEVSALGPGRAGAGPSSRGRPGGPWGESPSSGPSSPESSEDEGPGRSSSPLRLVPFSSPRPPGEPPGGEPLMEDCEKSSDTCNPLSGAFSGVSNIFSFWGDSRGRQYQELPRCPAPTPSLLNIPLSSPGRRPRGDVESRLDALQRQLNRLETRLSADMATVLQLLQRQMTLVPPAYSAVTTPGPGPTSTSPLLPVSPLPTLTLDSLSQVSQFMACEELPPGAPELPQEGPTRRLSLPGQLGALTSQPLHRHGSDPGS

SMILES | hERG current change (%, negative = inhibition) at 1uM
CC(C)(C)NS(=O)(=O)c1ccc(CCC(=O)O)cc1 | -2.17%
O=C(Nc1ccc(Cl)cc1)Nc1nnc(CSCc2ccccc2Cl)s1 | 10.2%
COc1ccccc1NC(=O)CCC(=O)Nc1nnc(C(F)(F)F)s1 | 6.82%
COc1ccc(CNC(=O)C2CCCN2)cc1OC.O=C(O)C(=O)O (stereo not drawn) | 11.5%
CC(OC(=O)c1nsc(Cl)c1Cl)C(=O)NCc1ccc2c(c1)OCO2 (stereo not drawn) | -2.16%
O=C(Nc1nc(-c2ccccn2)cs1)c1cc2ccccc2o1 | 11.8%
COc1cccc(C2NC(CCSC)(C(=O)O)C3C(=O)N(C(C)C)C(=O)C23)c1O (stereo not drawn) | -11.9%
O=C(CCn1cccc1)NCc1ccccc1 | 10.3%
O=C(N=Nc1c(O)[nH]c2ccc(Br)cc12)c1cc(-c2cccc3ccccc23)n[nH]1 | 8.42%
Cc1cccc(NC(=O)C(C)n2cc([N+](=O)[O-])cn2)n1 (stereo not drawn) | 7.46%
CCc1cccc(OCC2Cn3c(nc4c3c(=O)n(C)c(=O)n4C)O2)c1 (stereo not drawn) | 9.79%
CCOC(=O)CC1CCCCN1C(=O)c1ccc2nc(CCOC)oc2c1 (stereo not drawn) | 12.2%
CN(CC(=O)Nc1ccc(F)cc1Cl)Cc1cccs1 | 11.6%
COc1ccc(C(=O)Nc2cccc(/C(C)=N/NC(=O)c3ccc([N+](=O)[O-])c(C)c3)c2)cc1OC | -3.85%
O=C(CN1CCN(c2ccccc2F)CC1)NCc1ccccc1 | 7.79%
O=C(NC(=S)NNC(=O)c1cccs1)c1ccco1 | 6.64%
COC(=O)C1=C(N)OC2=C(C(=O)CC(C)(C)C2)C1c1cc2c(cc1Cl)OCO2 (stereo not drawn) | 15%
CC1CC(C)CN(C(=O)C(NS(=O)(=O)c2ccc3c(c2)oc(=O)n3C)C(C)C)C1 (stereo not drawn) | 6.54%
COc1ccc(N2CC(C(=O)Nc3c(C(N)=O)oc4ccccc34)CC2=O)cc1 (stereo not drawn) | 7.99%

SMILES | hERG current change (%, negative = inhibition) at 1uM
CCCCOc1ccc2c(c1)C(=O)c1cc(O)ccc1-2 | 10.1%
CCN1/C(=C/c2cc[n+](C)cc2)C=Cc2cc(C)ccc21.[I-] | -55.5%
CCn1c2ccccc2c2cc(/C=N/O)ccc21 | 27.3%
COC(=O)c1cccc(NC(=O)Cc2ccc(OC)cc2)c1C | 15.3%
Cc1ccn2c(-c3csc(NCc4ccccc4)n3)c(C)nc2c1.Cl | -4.54%
Cc1oc(C(C)(C)C)c(CN2CCCC2)c1C(=O)O.Cl | 15.5%
CC(=O)[C@@]1(O)CC[C@H]2[C@@H]3C[C@H](C)C4=CC(=O)C=C[C@]4(C)[C@@]3(F)[C@@H](O)C[C@@]21C | 13.3%
CCNc1nc(SCCOc2ccccc2)nc(N(C)C)n1 | 3.28%
COC(=O)C1CCN(Cc2nnc(-c3ccccc3)o2)CC1 | 12.2%
O=C(OCn1nnc2ccccc2c1=O)c1cc2ccccc2o1 | 3.04%
Cc1csc(N(C(=O)c2cccc(S(=O)(=O)N(C)C)c2)c2ccccc2)n1 | 2.97%
O=C(NC1CC1)C1=NOC(CNc2ncc(C(F)(F)F)cc2Cl)C1 (stereo not drawn) | -18.9%
COc1ccc(OC)c(/C=N/c2c(-c3ccc(O)c(OC)c3)nc3ccccn23)c1 | 7.11%
CC(=O)N1CCN(c2ccc(NCc3ccco3)cc2)CC1 | 4.78%
CN(C)C(=O)c1nc2ccc(Cl)cn2c1CN1CCCC(OCc2cccnc2)C1 (stereo not drawn) | -19.4%
CCOC(=O)N1CCN(C(=O)c2cn(CC)c3ccc(S(=O)(=O)N4CCCC4)cc3c2=O)CC1 | 5.16%
O=C(CCNC(=O)c1ccc(Br)cc1)Nc1cc(Cl)ccc1-n1cncn1 | -13.5%
CCC(CC)C(=O)NCCc1ccc(F)cc1 | 10.2%
CCOC(=O)c1c(C)[nH]c(C(=O)N2CCN(c3ccc(OC)cc3)CC2)c1C | 10.8%

SMILES | hERG current change (%, negative = inhibition) at 1uM
COc1ccc(-n2c(=S)[nH]c3sc4c(c3c2=O)CCc2ccccc2-4)cc1 | 11.5%
COCCCNc1nc2ccccc2nc1NS(=O)(=O)c1ccc(F)cc1 | 14.8%
COC(=O)c1c(NC(=O)c2ccco2)sc2c1C(C(=O)OC)CC2 (stereo not drawn) | 2.77%
CC(=O)c1c(C)[nH]c(C(=O)COC(=O)c2c(C)noc2C)c1C | 4.98%
O=S(=O)(Cc1ccccc1)Nc1cccc(Br)c1 | 15.6%
COc1ccccc1CNc1nc2nc(C)cc(=O)n2[nH]1 | 10.9%
O=C(CCCc1c[nH]c2ccccc12)Nc1ccc(S(=O)(=O)Nc2ncccn2)cc1 | -6.19%
C=C(C)C1CC=C(C)/C(=N/Nc2ccccc2[N+](=O)[O-])C1 (stereo not drawn) | 16.4%
O=C(CCN1CCN(c2ccccc2F)CC1)Nc1ccc2c(c1)OCO2 | -0.232%
Cc1cccc(NC(=O)CNC(=O)COc2cc(F)ccc2[N+](=O)[O-])c1C | 15.4%
Cc1ccc(CN=C2Nc3ccccc3CS2)cc1 | 14%
Cc1ccc(C)c(S(=O)(=O)NCc2ccncc2)c1 | 5.02%
CC(C)COc1ccc(/C(O)=C2/C(=O)C(=O)N(CCN(C)C)C2c2ccncc2)cc1 (stereo not drawn) | 12.9%
CC1CCCN(C(=S)SCC(=O)c2cc(Br)cc(Br)c2O)C1 (stereo not drawn) | 10.2%
CC(O)/C=C/c1ccc2ccccc2n1 (stereo not drawn) | 3.65%
CC(=O)/C(=N/Nc1ccccc1Cl)Sc1nnc(C(O)c2ccccc2)n1-c1ccccc1 (stereo not drawn) | 12.8%
O=C(COc1ccccc1)NCC(=O)Nc1cccc2ccccc12 | 5.54%
COc1ccccc1N=C(C)C1=C(O)COC1=O | 18.2%
CN(CC(=O)NCCc1ccc(S(N)(=O)=O)cc1)CC(=O)Nc1ccccc1Cl | -0.838%

— paper PMC4336329 (PLoS ONE, 2015)
